# The list shows a part of the results.
# B1: GALT1 615 (Arabidopsis thaliana), Q8L7F9 (protein)
# chain: DPMRGSHHHHHHGMASMTGGQQMGRDLYDDDDKSRLQKPYITAAASVVVTPNTTLPMEWLRITLPDFMKEARNTQEAISGDDIAVVSGLFVEQNVSKEEREPLLTWNRLESLVDNAQSLVNGVDAIKEAGIVWESLVSAVEAKKLVDVNENQTRKGKEELCPQFLSKMNATEADGSSLKLQIPCGLTQGSSITVIGIPDGLVGSFRIDLTGQPLPGEPDPPIIVHYNVRLLGDKSTEDPVIVQNSWTASQDWGAEERCPKFDPDMNKKVDDLDECNKMVGGEINRTSSTSLQSNTSRGVPVAREASKHEKYFPFKQGFLSVATLRVGTEGMQMTVDGKHITSFAFRDTLEPWLVSEIRITGDFRLISILA
# How the values were obtained:
# Assay in all cases: glycan array binding signal (z-score within array); higher = stronger binding
# Conditions in all cases: glycan notation: IUPAC condensed, linker removed
# [1] = target: Man(a1-2)Man(a1-2)Man(a1-3)Man
# Outline: (§1)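 Columns mapping to the same glycan were averaged after glycan names were converted to IUPAC-condensed notation. The data come from 3228 arrays in the Consortium for Functional Glycomics database, limited to those with an available protein sequence. Binding is reported as a within-array Z-score averaged across arrays of one protein sequence and across linkers.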
# [2] = target: Man(a1-2)Man(a1-2)Man(a1-6)[Man(a1-3)]Man
# Outline: as §1
# Man(a1-2)Man(a1-3)Man = target: Man(a1-2)Man(a1-3)Man
# Outline: as §1
# [3] = target: Man(a1-2)Man(a1-3)[Man(a1-2)Man(a1-6)]Man
# Outline: as §1
# [4] = target: Man(a1-2)Man(a1-3)[Man(a1-2)Man(a1-6)]Man(a1-6)[Man(a1-2)Man(a1-2)Man(a1-3)]Man
# Outline: as §1
# [5] = target: Man(a1-2)Man(a1-3)[Man(a1-2)Man(a1-6)]Man(a1-6)[Man(a1-2)Man(a1-2)Man(a1-3)]Man(b1-4)GlcNAc(b1-4)GlcNAc
# Outline: as §1
# [6] = target: Man(a1-2)Man(a1-3)[Man(a1-6)]Man(a1-6)[Man(a1-2)Man(a1-3)]Man(b1-4)GlcNAc(b1-4)GlcNAc
# Outline: as §1
# [7] = target: Man(a1-2)Man(a1-6)[Man(a1-3)]Man(a1-6)[Man(a1-2)Man(a1-2)Man(a1-3)]Man
# Outline: as §1
# [8] = target: Man(a1-2)Man(a1-6)[Man(a1-3)]Man(a1-6)[Man(a1-2)Man(a1-2)Man(a1-3)]Man(b1-4)GlcNAc(b1-4)GlcNAc
# Outline: as §1
# Man(a1-3)[Man(a1-6)]Man = target: Man(a1-3)[Man(a1-6)]Man
# Outline: as §1
# [9] = target: Man(a1-3)[Man(a1-6)]Man(a1-6)[Man(a1-2)Man(a1-3)]Man(b1-4)GlcNAc(b1-4)GlcNAc
# Outline: as §1
# [10] = target: Man(a1-3)[Man(a1-6)]Man(a1-6)[Man(a1-3)]Man
# Outline: as §1
# [11] = target: Man(a1-3)[Man(a1-6)]Man(a1-6)[Man(a1-3)]Man(b1-4)GlcNAc(b1-4)GlcNAc
# Outline: as §1
# [12] = target: Man(a1-3)[Man(a1-6)]Man(b1-4)GlcNAc(b1-4)GlcNAc
# Outline: as §1
# Man(a1-6)Man = target: Man(a1-6)Man
# Outline: as §1
# Man(b1-4)GlcNAc = target: Man(b1-4)GlcNAc
# Outline: as §1
# Neu5Ac(a2-3)Gal = target: Neu5Ac(a2-3)Gal
# Outline: as §1
# [13] = target: Neu5Ac(a2-3)Gal(b1-3)GalNAc
# Outline: as §1
# [14] = target: Neu5Ac(a2-3)Gal(b1-3)GalNAc(b1-3)Gal(a1-4)Gal(b1-4)Glc
# Outline: as §1
# [15] = target: Neu5Ac(a2-3)Gal(b1-3)GalNAc(b1-3)Gal(b1-4)GlcNAc
# Outline: as §1
# [16] = target: Neu5Ac(a2-3)Gal(b1-3)GalNAc(b1-4)[Neu5Ac(a2-3)]Gal(b1-4)Glc
# Outline: as §1
# [17] = target: Neu5Ac(a2-3)Gal(b1-3)GalNAc6S
# Outline: as §1
# [18] = target: Neu5Ac(a2-3)Gal(b1-3)GlcNAc
# Outline: as §1
# [19] = target: Neu5Ac(a2-3)Gal(b1-3)GlcNAc(b1-3)Gal(b1-3)GlcNAc
# Outline: as §1
# [20] = target: Neu5Ac(a2-3)Gal(b1-3)GlcNAc6S
# Outline: as §1
# [21] = target: Neu5Ac(a2-3)Gal(b1-3)[Fuc(a1-4)]GlcNAc
# Outline: as §1
# [22] = target: Neu5Ac(a2-3)Gal(b1-3)[Fuc(a1-4)]GlcNAc(b1-3)Gal(b1-3)[Fuc(a1-4)]GlcNAc
# Outline: as §1
# [23] = target: Neu5Ac(a2-3)Gal(b1-3)[Fuc(a1-4)]GlcNAc(b1-3)Gal(b1-4)[Fuc(a1-3)]GlcNAc
# Outline: as §1
# [24] = target: Neu5Ac(a2-3)Gal(b1-3)[Neu5Ac(a2-3)Gal(b1-4)]GlcNAc
# Outline: as §1
# [25] = target: Neu5Ac(a2-3)Gal(b1-3)[Neu5Ac(a2-6)]GalNAc
# Outline: as §1
# Neu5Ac(a2-3)Gal(b1-4)Glc = target: Neu5Ac(a2-3)Gal(b1-4)Glc
# Outline: as §1
# [26] = target: Neu5Ac(a2-3)Gal(b1-4)GlcNAc
# Outline: as §1
# [27] = target: Neu5Ac(a2-3)Gal(b1-4)GlcNAc(b1-2)Man(a1-3)[GlcNAc(b1-2)Man(b1-4)GlcNAc(b1-2)Man(a1-6)]Man(b1-4)GlcNAc(b1-4)GlcNAc
# Outline: as §1
# [28] = target: Neu5Ac(a2-3)Gal(b1-4)GlcNAc(b1-2)Man(a1-3)[Neu5Ac(a2-6)Gal(b1-4)GlcNAc(b1-2)Man(a1-6)]Man(b1-4)GlcNAc(b1-4)GlcNAc
# Outline: as §1
# [29] = target: Neu5Ac(a2-3)Gal(b1-4)GlcNAc(b1-3)Gal(b1-3)GlcNAc
# Outline: as §1
# [30] = target: Neu5Ac(a2-3)Gal(b1-4)GlcNAc(b1-3)Gal(b1-4)GlcNAc
# Outline: as §1
# [31] = target: Neu5Ac(a2-3)Gal(b1-4)GlcNAc(b1-3)Gal(b1-4)GlcNAc(b1-3)Gal(b1-4)GlcNAc
# Outline: as §1
binder,measurement,setting,value
B1,glycan array binding signal (z-score),[1],1.68
same,glycan array binding signal (z-score),[2],-0.364
same,glycan array binding signal (z-score),Man(a1-2)Man(a1-3)Man,-0.222
same,glycan array binding signal (z-score),[3],-0.169
same,glycan array binding signal (z-score),[4],0.183
same,glycan array binding signal (z-score),[5],-0.104
same,glycan array binding signal (z-score),[6],-0.3
same,glycan array binding signal (z-score),[7],-0.249
same,glycan array binding signal (z-score),[8],-0.415
same,glycan array binding signal (z-score),Man(a1-3)[Man(a1-6)]Man,-0.369
same,glycan array binding signal (z-score),[9],0.283
same,glycan array binding signal (z-score),[10],-0.124
same,glycan array binding signal (z-score),[11],-0.163
same,glycan array binding signal (z-score),[12],0.039
same,glycan array binding signal (z-score),Man(a1-6)Man,-0.275
same,glycan array binding signal (z-score),Man(b1-4)GlcNAc,-0.058
same,glycan array binding signal (z-score),Neu5Ac(a2-3)Gal,0.238
same,glycan array binding signal (z-score),[13],-0.547
same,glycan array binding signal (z-score),[14],-0.285
same,glycan array binding signal (z-score),[15],-0.257
same,glycan array binding signal (z-score),[16],-0.294
same,glycan array binding signal (z-score),[17],-0.084
same,glycan array binding signal (z-score),[18],-0.215
same,glycan array binding signal (z-score),[19],-0.265
same,glycan array binding signal (z-score),[20],-0.079
same,glycan array binding signal (z-score),[21],-0.325
same,glycan array binding signal (z-score),[22],-0.231
same,glycan array binding signal (z-score),[23],-0.545
same,glycan array binding signal (z-score),[24],-0.343
same,glycan array binding signal (z-score),[25],-0.475
same,glycan array binding signal (z-score),Neu5Ac(a2-3)Gal(b1-4)Glc,-0.177
same,glycan array binding signal (z-score),[26],-0.197
same,glycan array binding signal (z-score),[27],0.73
same,glycan array binding signal (z-score),[28],-0.097
same,glycan array binding signal (z-score),[29],-0.425
same,glycan array binding signal (z-score),[30],-0.188
same,glycan array binding signal (z-score),[31],-0.242

# Source: the supplement of paper PMC8728848
